Measured values: article PMC4336329 (PLoS ONE, 2015)
Screen size: about 310,000 compounds; about 14,000 (4.5%) showed an effect of 50% or more. The effect is printed as a negative number. This is one part of the list.

biological target: human ether-à-go-go-related gene (hERG) potassium channel (human, UniProt Q12809); test: primary screen, population patch clamp on CHO cells stably expressing hERG
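Also: peak tail current of the secondary pulse compared with the same well before compound.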

human ether-à-go-go-related gene (hERG) potassium channel, sequence (Q12809 whole entry, looked up): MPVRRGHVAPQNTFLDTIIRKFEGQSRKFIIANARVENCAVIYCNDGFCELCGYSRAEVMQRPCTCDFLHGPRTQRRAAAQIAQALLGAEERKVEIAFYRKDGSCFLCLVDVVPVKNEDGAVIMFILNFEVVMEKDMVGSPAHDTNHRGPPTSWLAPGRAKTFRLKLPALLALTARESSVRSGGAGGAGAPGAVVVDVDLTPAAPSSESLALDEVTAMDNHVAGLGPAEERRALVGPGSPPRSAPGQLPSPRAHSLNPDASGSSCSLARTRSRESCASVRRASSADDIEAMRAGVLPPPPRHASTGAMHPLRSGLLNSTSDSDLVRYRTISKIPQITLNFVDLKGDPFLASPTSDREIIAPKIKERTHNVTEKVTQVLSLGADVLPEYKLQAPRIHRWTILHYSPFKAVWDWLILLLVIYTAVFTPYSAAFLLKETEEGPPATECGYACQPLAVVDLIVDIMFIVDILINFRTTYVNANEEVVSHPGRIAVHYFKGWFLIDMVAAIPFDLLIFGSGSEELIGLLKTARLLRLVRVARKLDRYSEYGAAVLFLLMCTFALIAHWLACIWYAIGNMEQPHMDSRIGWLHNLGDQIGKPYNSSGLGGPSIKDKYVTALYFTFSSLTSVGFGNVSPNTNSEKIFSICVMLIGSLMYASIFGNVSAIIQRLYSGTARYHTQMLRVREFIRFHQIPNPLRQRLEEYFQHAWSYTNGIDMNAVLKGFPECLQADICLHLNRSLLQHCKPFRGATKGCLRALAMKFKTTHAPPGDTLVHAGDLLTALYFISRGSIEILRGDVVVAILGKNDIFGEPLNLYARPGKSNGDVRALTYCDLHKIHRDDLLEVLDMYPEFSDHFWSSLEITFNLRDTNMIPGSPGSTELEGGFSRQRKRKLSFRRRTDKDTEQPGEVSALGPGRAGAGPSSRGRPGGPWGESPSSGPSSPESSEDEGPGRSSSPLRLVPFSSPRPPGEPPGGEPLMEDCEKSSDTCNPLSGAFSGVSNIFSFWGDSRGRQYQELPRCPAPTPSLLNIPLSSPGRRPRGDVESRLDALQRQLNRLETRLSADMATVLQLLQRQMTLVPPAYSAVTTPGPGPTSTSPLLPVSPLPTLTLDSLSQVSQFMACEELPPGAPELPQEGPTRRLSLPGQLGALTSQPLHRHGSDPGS

Structure (SMILES)	hERG current change (%, negative = inhibition) at 10uM [%]
Cc1cc2ncn(CS(C)(=O)=O)c2cc1C	22.6
O=C(O)c1ccccc1-c1nc2ccccc2n1-c1ccccc1	13
O=C(O)C1C(c2ccccc2)C(C(=O)OCCCO)C1c1ccccc1 (stereo not drawn)	-1.18
CC(C)Oc1cccc(C(=O)C2CCCN(C(=O)c3noc4c3CCCC4)C2)c1 (stereo not drawn)	-44.6
C/C(=N\N1C(=O)c2ccccc2NC1c1ccco1)c1ccccc1O (stereo not drawn)	25.3
O=C(NNS(=O)(=O)c1ccc([N+](=O)[O-])cc1)c1ccc([N+](=O)[O-])cc1	28.6
CCOC(=O)C1(CCOc2ccccc2)CCN(Cc2cnc(C)s2)CC1	-62.4
CC(C)(C)CN1CCNC(=O)C1CC(=O)NCCN1CCCc2ccccc21 (stereo not drawn)	0.68
Cc1ccc(S(=O)(=O)N(C)C)cc1NC(=O)COC(=O)c1ccc(Cl)cc1	3.01
O=C(OC(C(=O)Nc1ccc([N+](=O)[O-])cc1Br)c1ccccc1)c1ccccc1 (stereo not drawn)	5.91
O=S(Cc1ccc(Br)cc1)Cc1nnc(SCc2ccc(Cl)cc2)n1-c1ccccc1 (stereo not drawn)	-11.6
C[n+]1ccccc1/C=C/c1cc(Br)ccc1O.[I-]	14.7
Cc1cc(Cl)c2oc(C(=O)NCCC3CCCCO3)c(C)c2c1 (stereo not drawn)	2.57
COc1ccc(N2CC(C(=O)N(C)CC(=O)Nc3ccc(Cl)c(C(F)(F)F)c3)CC2=O)c(OC)c1 (stereo not drawn)	-43.4
Cc1ccc(Cn2c(SCC(=O)N/N=C/c3ccc(C)o3)nc3ccccc32)cc1	-61.1
COc1ccccc1-c1nnc(NC(=O)c2ccc3c(c2)OCO3)s1	5.2
CCOCCCn1c(=S)[nH]c2cc(C(=O)NCCOC)ccc2c1=O	10.7
CC1Oc2ccccc2OC1(O)c1ccc2ccccc2n1 (stereo not drawn)	-8.21
O=C(CCc1nc(-c2ccccc2Cl)no1)NCCc1ccccc1	7.08
CC1(C(=O)Nc2ccc3ccccc3c2)CC1(Br)Br (stereo not drawn)	-4.46
c1ccc(C(c2ccccc2)c2ccn[nH]2)cc1	11
CC1CCCCN1C(=O)CSc1nc2cc3c(cc2c(=O)n1Cc1ccc2c(c1)OCO2)OCO3 (stereo not drawn)	1.12
O=Cc1ccc(Oc2nc(Cl)ncc2F)cc1	10.4
CCOC(=O)c1cc2sccc2n1CC(=O)N1CCN(C(=O)c2ccco2)CC1	-48.2
